# Laboratory results taken from PubChem BioAssay AID588453 (National Center for Advancing Translational Sciences (NCATS), 2011).
# Where “and” joins values, the source holds several entries; their conditions need not be identical. Equal entries are not always repeated. Among all 390,000 compounds or so, about 4,000 (1%) were called active. This list was built around the results that the source calls inconclusive (neither active nor inactive); the mix of calls is not that of the screen. The call rests on the fitted dose curve; in most records, active means well fitted inhibition curve with a large enough effect; inconclusive means small, poorly fitted or top-dose-only effect; inactive means no such curve, though single readings can be large or run the other way. A potency beside an inconclusive call is a rough fit, not a confirmed value.
# Molecular target: Thioredoxin reductase 1, cytoplasmic (Rattus norvegicus) (UniProt O89049)
# Assay: qHTS Assay for Inhibitors of Mammalian Selenoprotein Thioredoxin Reductase 1 (TrxR1): qHTS; further: nearly all actives have a fitted effect of over 65% in size
# Details: recombinant rTrxR1, NADPH fluorescence consumption, selenite substrate; series mostly up to 114 µM
# How it was run: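 Rat TrxR1 (90 nM in the dispensed reagent) was pre-reduced with 400 uM NADPH for 5 min at room temperature, then incubated with compound for 15 min. After 400 uM selenite was added, NADPH fluorescence (Ex 340/Em 450 nm) was followed for 8 min.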
# On the % scale 0 is the no-effect control and ±100 the full control effect; potency means the concentration at half of the fitted maximal effect; tags describe the fitted curve by direction and shape.
# UniProt O89049, sequence (O89049 whole entry, looked up): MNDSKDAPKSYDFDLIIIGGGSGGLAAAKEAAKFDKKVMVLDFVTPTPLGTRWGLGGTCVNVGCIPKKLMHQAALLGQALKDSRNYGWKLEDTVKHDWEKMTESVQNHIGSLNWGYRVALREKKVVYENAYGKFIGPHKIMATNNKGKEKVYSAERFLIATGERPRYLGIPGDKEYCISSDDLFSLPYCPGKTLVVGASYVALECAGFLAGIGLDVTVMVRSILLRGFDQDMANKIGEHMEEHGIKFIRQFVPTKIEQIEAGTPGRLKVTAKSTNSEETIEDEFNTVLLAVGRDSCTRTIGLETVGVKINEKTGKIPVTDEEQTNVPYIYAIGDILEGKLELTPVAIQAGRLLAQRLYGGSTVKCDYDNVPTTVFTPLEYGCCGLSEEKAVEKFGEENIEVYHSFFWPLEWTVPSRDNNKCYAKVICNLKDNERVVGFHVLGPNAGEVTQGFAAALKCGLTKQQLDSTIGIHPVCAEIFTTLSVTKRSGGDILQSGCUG
Compound,Potency,"activity change, negative = inhibition"
COc1ccc(C(=O)NC(=S)Nc2ccc(S(=O)(=O)Nc3cc(OC)nc(OC)n3)cc2)cc1,active: 56.2 µM,–
COc1ccc(-c2n[nH]c(=S)n2Cc2ccco2)cc1,"inconclusive: 12.6 µM [inhibitor, full curve]",–
C[C@H]1CN([C@@H](C)CO)C(=O)c2cccc(NC(=O)c3cnccn3)c2O[C@@H]1CN(C)C(=O)Nc1ccc2c(c1)OCO2,"inconclusive: 56.2 µM [inhibitor, partial curve]",–
COc1cc(NC(=S)NC(=O)c2ccccc2C)ccc1NC(=O)c1cccs1,"inconclusive: 2.24 µM [inhibitor, full curve, poor fit]",–
Cc1ccc(C)c(/C(O)=C2/C(=O)C(=O)N(CCN3CCOCC3)C2c2ccco2)c1 (stereo not given),"inconclusive: 50.1 µM [inhibitor, partial curve]",–
O=C(CSc1ncnc2c1cnn2-c1ccccc1Cl)N1CCN(C(=O)c2ccco2)CC1,"inconclusive: 79.4 µM [inhibitor, partial curve]",–
COC(=O)C1=C(C)NC(=O)NC1c1ccc(-c2ccc(Cl)cc2)o1 (stereo not given),inactive,–
COc1ccc(OC)c2[nH]c(C(=O)O)cc12,"inconclusive: 2 µM [inhibitor, partial curve, poor fit]",–
C/C(=N\N1C(=O)CSC1=S)c1ccc(Br)cc1,"inconclusive: 14.1 µM [inhibitor, partial curve]",–
CCCCOc1ccc(C(C)NC(=O)c2cccc(Nc3nc4ccccc4n4nnnc34)c2)cc1 (stereo not given),"inconclusive: 70.8 µM [inhibitor, partial curve]",–
COc1ccc(C(=O)COC(=O)/C=C/c2ccc(S(=O)(=O)Nc3cccc(S(N)(=O)=O)c3)cc2)cc1,"inconclusive: 35.5 µM [inhibitor, single point]",–
CCOc1cccc(N)c1,inactive,–
CC(C)Oc1ccc(C(=O)NC(=S)Nc2ccc(Cl)c(C(=O)O)c2)cc1,"inconclusive: 44.7 µM [inhibitor, partial curve]",–
N#C/C(=C\c1ccc(O)cc1)C(=O)NCc1cccc(Cl)c1,"inconclusive: 79.4 µM [inhibitor, single point]",–
COCC(C)N=C1SCCN1Cc1ccccc1 (stereo not given),inactive,–
Oc1ccc(O)cc1,"inconclusive: 56.2 µM [inhibitor, partial curve] and inconclusive: 9.47 µM [inhibitor, partial curve, poor fit]",–
COc1ccc(NC(=O)[C@H](C)NC(=O)C2CCN(S(=O)(=O)c3ccc(C)cc3)CC2)cc1,"inconclusive: 39.8 µM [inhibitor, single point]",–
C#CCOCCOCCOCCNc1nc(N2CCN(C(=O)CCCCCCCCCCNC(=O)Cn3cc(CCCCCN)nn3)CC2)nc(N2CCN(C(=O)CCCCCCCCCCNC(=O)[C@H]([C@@H](C)CC)n3cc(CCCCN=C(N)N)nn3)CC2)n1,"inconclusive: 44.7 µM [inhibitor, partial curve]",–
Cc1ccc(NC(=S)NC(=O)C2CCCCC2)c(Br)c1,"inconclusive: 25.1 µM [inhibitor, single point]",–
COc1ccc(C(CC(=O)Nc2cc([N+](=O)[O-])ccc2OC)c2ccccc2)cc1 (stereo not given),"inconclusive: 31.6 µM [inhibitor, partial curve, poor fit]",–

Compound,Potency,"activity change, negative = inhibition"
COC(=O)Nc1ccc(S(=O)(=O)N2CCCC(C(=O)Nc3cccnc3)C2)cc1 (stereo not given),"inconclusive: 39.8 µM [inhibitor, single point]",–
Nc1cccc2cc(S(=O)(=O)O)ccc12,–,inactive: -10.3% [at 2.29 µM]
COc1ccc(Cl)cc1/C=C(\C#N)C(N)=O,"inconclusive: 25.1 µM [inhibitor, partial curve, poor fit]",–
Cc1ccc(C(C2=C(O)CC(C)(C)CC2=O)C2C(=O)CC(C)(C)CC2=O)s1 (stereo not given),active: 10 µM,–
COc1ccccc1-c1cc(C(F)(F)F)nc(S(=O)(=O)CCCC(=O)Nc2cc(C)ccc2O)n1,"inconclusive: 14.1 µM [inhibitor, full curve]",–
CC1(C)Cc2c(sc3ncnc(N)c23)CO1,inactive,–
CCN(CCCNC(=O)COc1cc(=O)n(C)c2ccccc12)c1cccc(C)c1,inactive,–
Cc1ccc(C)c(N(CC(=O)NCCSCc2ccco2)S(C)(=O)=O)c1,"inconclusive: 35.5 µM [inhibitor, partial curve]",–
COc1cccc(NC(=O)C2CC(=O)n3cnnc3S2)c1 (stereo not given),"inconclusive: 4.47 µM [inhibitor, full curve, poor fit]",–
FC(F)(F)c1ccc(C2[C@H]3CN(Cc4ccc(-c5ccccc5)cc4)[C@H](c4ccccc4)C34CC2(c2ccccc2)C4)cc1 (stereo not given in full),"inconclusive: 44.7 µM [inhibitor, partial curve, poor fit]",–
O=C(O)CCCC(=O)N1CCc2cc(S(=O)(=O)NCc3ccc(F)cc3)ccc21,"inconclusive: 25.1 µM [inhibitor, single point]",–
Cc1cc(C)cc(NC(=O)C(NS(=O)(=O)c2cccc3nsnc23)c2ccccc2)c1 (stereo not given),inactive,–
S=c1[nH]nc(CSCc2ccc(Cl)cc2Cl)n1-c1ccccc1,"inconclusive: 0.794 µM [inhibitor, full curve, poor fit]",–
COc1ccc(C(=O)C=CNNC(=O)c2ccc(Cl)cc2)cc1,"inconclusive: 79.4 µM [inhibitor, single point]",–
CCc1ccc(CNc2ccc(O)cc2)cc1,"inconclusive: 35.5 µM [inhibitor, single point]",–
O=C(c1cc2ccccc2o1)N1CCOCC1,inactive,–
CCN(CC)C(=S)NC(=O)c1cc(OC)c(OC)c(OC)c1,"inconclusive: 20 µM [inhibitor, partial curve, poor fit]",–
Cc1nc2c(-c3ccc(F)cc3)c(C)nn2c(C)c1CCC(=O)NCc1ccco1,"inconclusive: 89.1 µM [inhibitor, single point]",–
CCOc1cccc(C2CC(=O)Nc3cc4c(cc32)OCCO4)c1 (stereo not given),inactive,–
Cc1onc(-c2c(Cl)cccc2Cl)c1C(=O)NCc1ccco1,"inconclusive: 39.8 µM [inhibitor, single point]",–
